Measurements as given in article PMC4336329 (PLoS ONE, 2015).
The whole screen tested about 310,000 compounds, of which about 2,200 (0.71%) showed an effect of 50% or more. Effects have a minus sign here. The list shows a part of the results.

Each compound was assayed against human ether-à-go-go-related gene (hERG) potassium channel (human, UniProt Q12809) (assay: primary screen, population patch clamp on CHO cells stably expressing hERG).
Sequence of human ether-à-go-go-related gene (hERG) potassium channel (Q12809 whole entry, looked up): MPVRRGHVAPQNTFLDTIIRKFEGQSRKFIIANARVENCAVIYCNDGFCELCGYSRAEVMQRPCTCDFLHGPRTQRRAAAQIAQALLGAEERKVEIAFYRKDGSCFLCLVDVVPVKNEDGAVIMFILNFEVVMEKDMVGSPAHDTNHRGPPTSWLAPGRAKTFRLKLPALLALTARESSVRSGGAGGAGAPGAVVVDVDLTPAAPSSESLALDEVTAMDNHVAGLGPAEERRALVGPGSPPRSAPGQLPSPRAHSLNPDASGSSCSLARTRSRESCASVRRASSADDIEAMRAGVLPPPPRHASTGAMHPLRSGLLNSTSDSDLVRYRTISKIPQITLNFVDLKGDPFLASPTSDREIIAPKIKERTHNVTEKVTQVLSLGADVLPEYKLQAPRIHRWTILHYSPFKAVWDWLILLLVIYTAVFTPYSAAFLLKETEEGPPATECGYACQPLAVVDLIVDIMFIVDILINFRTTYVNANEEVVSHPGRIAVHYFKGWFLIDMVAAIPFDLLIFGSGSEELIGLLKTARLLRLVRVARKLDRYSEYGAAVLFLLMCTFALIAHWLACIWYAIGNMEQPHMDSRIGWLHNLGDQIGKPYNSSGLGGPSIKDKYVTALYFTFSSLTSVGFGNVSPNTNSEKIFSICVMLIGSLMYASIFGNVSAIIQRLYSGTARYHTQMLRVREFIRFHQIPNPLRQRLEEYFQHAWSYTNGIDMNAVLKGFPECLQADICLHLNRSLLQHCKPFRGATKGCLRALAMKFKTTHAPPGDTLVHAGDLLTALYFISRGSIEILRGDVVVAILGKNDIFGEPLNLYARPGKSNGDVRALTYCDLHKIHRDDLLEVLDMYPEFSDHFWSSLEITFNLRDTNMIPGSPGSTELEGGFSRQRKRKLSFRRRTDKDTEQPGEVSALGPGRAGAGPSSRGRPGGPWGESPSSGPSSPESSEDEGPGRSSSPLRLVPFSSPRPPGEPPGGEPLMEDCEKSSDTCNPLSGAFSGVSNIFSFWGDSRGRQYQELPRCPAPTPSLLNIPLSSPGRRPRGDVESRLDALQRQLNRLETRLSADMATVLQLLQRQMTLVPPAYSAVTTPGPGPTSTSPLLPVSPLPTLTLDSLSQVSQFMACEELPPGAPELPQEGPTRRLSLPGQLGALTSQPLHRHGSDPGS

Structure (SMILES) | hERG current change (%, negative = inhibition) at 1uM
C=CCn1c(SCC(=O)Nc2nccs2)nnc1-c1ccco1 | -10.8%
NC(=O)c1ccc(-n2c(CCC(=O)O)ccc2-c2cccs2)cc1 | 8.72%
CCCCN(C)CCCNC(=O)c1cn(CC)c2ccc(S(=O)(=O)N3CCOCC3)cc2c1=O | 18.8%
CCOC(=O)c1c(C#N)cnn1-c1ccc(C)cc1 | 6.65%
CCN1C(=O)/C(=C\c2ccncc2)SC1=Nc1ccc(C)c(C)c1 | 4.3%
O=S(=O)(Oc1ccc(C(=S)N2CCOCC2)cc1)c1ccc(Cl)cc1 | 17.2%
O=C(Nc1ccc(F)cc1F)C1CCCN1S(=O)(=O)c1ccc(-c2ccc(=O)[nH]n2)s1 (centres unmarked) | -0.985%
O=C(CCN1C(=O)c2ccccc2C1=O)Nc1ccccc1C(F)(F)F | 3.27%
COc1ccc(-n2nc(C(=O)NCc3ccco3)c3c4ccccc4n(C)c3c2=O)cc1Cl | 7.91%
CCC(c1nnnn1C(C)C)N1CCN(C2CCCC2)CC1.Cl (centres unmarked) | 8.37%
CCOc1ccccc1Nc1ncnc2c1cnn2-c1ccccc1 | -0.541%
CCc1ccc(C(=O)NC(C(=O)O)C(C)C)cc1 (centres unmarked) | -1.76%
COc1ccc(/C=C2\Sc3ccc(C(=O)NCCN4CCCCCC4)cc3N(C)C2=O)cc1 | 8.93%
COc1ccc(C(=O)NCC(=O)OCC(=O)c2cc(OC)c(OC)c(OC)c2)cc1OC | 15.4%
COc1ccc(N2CCN(C3CCCN(Cc4ccc(F)c(F)c4)C3)CC2)cc1 (centres unmarked) | -10.9%
COc1ccc(C2SCC(=O)N2c2nnc(C34CC5CC(CC(C5)C3)C4)s2)cc1 (centres unmarked) | 8.63%
CN(C)c1ccc(/C=C(\C#N)C(=O)Nc2nc3c(s2)CCN(Cc2ccccc2)C3)cc1 | 17.9%
Cn1c(Cn2c3ccccc3c3ccccc32)n[nH]c1=S | 10.4%
NC(=O)c1ccc(NC(=O)COC(=O)c2ccccc2Nc2ccccc2)cc1 | -2.98%
CCCN1Cc2cccc(C(=O)Nc3ccc(C)cc3)c2C1=O | 20.6%
CCOC(=O)CSC1=C(C#N)C(c2ccc3c(c2)OCO3)CC(=O)N1 (centres unmarked) | 14%
COc1cccc(CSc2nccn2C)c1 | 17%

Structure (SMILES) | hERG current change (%, negative = inhibition) at 1uM
O=C(NCCN1CCOCC1)c1ccc(Cl)cc1[N+](=O)[O-] | 7.62%
O=C(COC(=O)c1ccccc1O)NCC1COc2ccccc2O1 (centres unmarked) | 18.5%
Cc1cc(C)n(-c2ccc(C(=O)NCCCN3CCOCC3)cc2)n1 | 13.4%
CCOc1ccc(C(=O)COC(=O)Cc2n[nH]c(=O)c3ccccc23)cc1 | 0.946%
NC(=O)c1ccc(-c2nnn(CC(=O)Nc3cccc(S(=O)(=O)N4CCCC4)c3)n2)cc1 | 11.6%
O=C(COC(=O)c1cccnc1Cl)Nc1nc(-c2ccccc2)cs1 | 2%
O=C(NCC(=O)N(c1ccc(F)cc1)C(C(=O)NC1CCCC1)c1cccnc1)c1cccs1 (centres unmarked) | 6.76%
CCOc1ccc2nc(NC(=O)c3ccc(S(=O)(=O)N4CCOCC4)cc3)sc2c1 | 9.49%
CCCCSc1nnc(-c2ccccc2)c2ccccc12 | 4.51%
Cn1c(=O)c2c(-c3ccccc3)n(C3CCCCC3)cc2n(C)c1=O | 10.5%
CCC(=O)Oc1oc(-c2ccccc2)nc1C=Nc1ccccc1OC | 12.2%
O=C(CN1CCc2ccccc21)NC(=O)NCc1ccccc1 | 7.58%
Cc1cccc(NC(=O)CCNS(=O)(=O)c2cc(Br)cnc2N)c1C | 2.32%
C[N+]1(C)[C@@H]2CC[C@H]1CC(OC(=O)C(c1ccccc1)c1ccccc1)C2.[I-] (some centres unmarked) | 14.4%
O=C(Cc1ccccc1)N/N=C/c1ccc(S(=O)(=O)[O-])o1 | 1.68%
C/C(=N\OC(=O)c1c(-c2ccccc2Cl)noc1C)c1nccs1 | -5.38%
Cc1cc(Nc2ccc3c(c2)OCCO3)n2ncnc2n1 | -5.65%
CCOC(=O)CNC(=O)CNC(=O)c1nn(-c2ccc(OC)c(Cl)c2)c(=O)c2ccccc12 | 11.4%
O=C(CSc1ncn[nH]1)NCCc1ccc(Cl)cc1 | 0.344%
CCOc1ccccc1C1C(C(=O)Nc2ccc(OC)cc2)=C(C)Nc2nc(CCCO)nn21 (centres unmarked) | 2.64%
COc1cc(NC(=O)C2CC(c3cccc(OC)c3OC)=NO2)cc(OC)c1OC (centres unmarked) | -5.9%
CCN(CC)S(=O)(=O)c1ccc(NS(=O)(=O)c2ccc3oc(=O)[nH]c3c2)cc1 | 18%
